Data on 219 sequences can be found in article PMC6212790.

The other results are listed elsewhere or left out. At the low end of the ranking, values are background and their order means little.

The assay has as its target T1, GST-Rok (full length) (UniProt O34857).
T1 sequence: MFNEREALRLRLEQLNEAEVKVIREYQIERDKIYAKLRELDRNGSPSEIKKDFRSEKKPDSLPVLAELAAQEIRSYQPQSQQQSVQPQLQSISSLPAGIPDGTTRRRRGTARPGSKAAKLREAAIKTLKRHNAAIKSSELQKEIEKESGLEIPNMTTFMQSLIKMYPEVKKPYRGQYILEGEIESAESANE
Briefly: protein binding microarray.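 Note: rank score from −0.5 (least bound) to 0.5 (best bound).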 Particulars: Rok is a gene silencer of Bacillus subtilis; high values mean tight binding; most listed sequences are background and not binding sites; double strand, one strand shown.
In turn, AAGAACTA came in with a binding signal of 0.197 E-score. In the case of ATTTAATG it was 0.143 E-score; in that of AATTCGGC, 0.0891 E-score; in that of AAGAGGAT, 0.0284 E-score. For CGCAGGGA the value was -0.187 E-score; for AACCGCCG, -0.186 E-score. In the case of ATGGCTTC it was -0.248 E-score. On to TCAGAGCA, for which the binding signal is -0.24 E-score.

In turn, GATCCTGA returned a binding signal of -0.144 E-score. In turn, GATCTAGA yielded a binding signal of 0.119 E-score. In the case of GCCCTCAA it was -0.229 E-score; in that of ATCTTCAT, 0.0559 E-score; in that of CAGAGACA, -0.183 E-score.

AAACAACT gave a binding signal of 0.199 E-score. In the case of AAAACATC it was 0.104 E-score; in that of CCTAATCA, 0.0328 E-score; in that of AAACGTTA, 0.165 E-score. In the case of CCATCACA it was -0.187 E-score; in that of GACAGCCC, -0.245 E-score.

In turn, AAGGTCTA had a binding signal of 0.016 E-score. The sequence ATACATGG had a binding signal of 0.113 E-score. Turning to GTGCGCAA, the binding signal was -0.0818 E-score. For CTCATGCA the value was -0.0636 E-score; for CCGACGCA, -0.198 E-score.

Sequence GCCGTACA displayed a binding signal of -0.0477 E-score. In the case of CGTCCCCA it was -0.37 E-score; in that of AAGCTGAC, -0.177 E-score.

On to CAACATCA, for which the binding signal was -0.166 E-score.

As to GCAGGTAA, the binding signal was -0.0217 E-score. The sequence AATCTTGT showed a binding signal of 0.131 E-score.

In turn, CCAACCTA had a binding signal of 0.0696 E-score. For GGTTTAAC the value was -0.00178 E-score. In the case of CAGGGACG it was -0.28 E-score; in that of GCTCTAGA, -0.192 E-score; in that of AATTACAA, 0.217 E-score. Consider GTACACAA, for which the binding signal was 0.277 E-score. For AGAGTGAG the value was -0.191 E-score; for ACAGGAAG, -0.0751 E-score. In the case of CCCTGTGA it was -0.45 E-score; in that of ATCAAAAC, 0.0166 E-score; in that of TGACACAA, -0.00668 E-score.

CATAGCCG registered a binding signal of -0.0675 E-score. For CTCTGCGA the value was -0.0061 E-score. For GGCAGAGA the value was -0.13 E-score.

AGGATTCG displayed a binding signal of 0.00923 E-score. In the case of CGCGAATC it was -0.171 E-score; in that of GTAGGAAA, 0.293 E-score; in that of GTTCCTTA, -0.0408 E-score. In the case of GCCATCAA it was -0.128 E-score; in that of TGATTGCA, 0.106 E-score. ATTACCAG came in with a binding signal of 0.228 E-score.

As for AAATAGCA, the binding signal was found to be 0.0964 E-score. In the case of ACGACTAG it was 0.0443 E-score; in that of CCGCAAAA, -0.154 E-score; in that of CTCGGAAA, 0.182 E-score. In the case of AGGTCCCC it was -0.373 E-score; in that of ACTACCGG, 0.145 E-score; in that of GTTTCAAA, -0.128 E-score. For ATCGCTTC the value was 0.025 E-score; for TCTTACAA, -0.0213 E-score. Sequence ATGTACGG had a binding signal of 0.149 E-score.

Take ATCCGCAT: the binding signal was determined as 0.0829 E-score. Sequence AACACCTA returned a binding signal of 0.167 E-score. For AGATGAGA the value was -0.0539 E-score; for TCTAAGAA, 0.0223 E-score; for CATTAGGA, -0.194 E-score. Sequence CGCACGTC showed a binding signal of -0.00235 E-score. In the case of AACGGTGC it was -0.265 E-score.

For GGACTCGA, the binding signal was -0.158 E-score. In turn, ACTTGTAG showed a binding signal of 0.185 E-score. As for ACTCAGCG, the binding signal is -0.163 E-score. In the case of CGTCAACA it was -0.101 E-score; in that of GTATCGAC, 0.0694 E-score; in that of AGTCCAAA, -0.0624 E-score. Sequence CCCAGCCC showed a binding signal of -0.479 E-score. Sequence GAGCGGAC returned a binding signal of -0.331 E-score. In the case of GCCTTAAC it was -0.0156 E-score; in that of CTCTATGC, 0.00587 E-score. In the case of ATACACCC it was 0.0834 E-score; in that of TCCGGTAA, 0.0305 E-score.

With AGTTGGAG, the binding signal was -0.201 E-score.

With GGAGCCAA, the binding signal is -0.181 E-score. For CAAGGTCA the value was -0.041 E-score; for AGCCGCTA, -0.0418 E-score; for GATTAATC, 0.163 E-score. For GTGTTTAA the value was 0.047 E-score. For CCAGGTCC the value was -0.222 E-score; for GATCTTTA, 0.0516 E-score. The sequence GCCCTTCA gave a binding signal of -0.242 E-score.

TCGATAAA displayed a binding signal of 0.266 E-score. For GACTTCCA the value was 0.105 E-score; for AGGTTGAC, -0.156 E-score. For CGGTGAGA the value was -0.151 E-score; for CGTATTAG, 0.115 E-score; for CATGTACA, 0.317 E-score. In the case of CGAGAAGA it was -0.135 E-score; in that of AATTTCCG, 0.0676 E-score. As for AAATAGGT, the binding signal came out at 0.311 E-score. Sequence GCGTGATA gave a binding signal of 0.215 E-score. The sequence ATCCAAAT displayed a binding signal of 0.0276 E-score. In the case of ACGGACTG it was -0.2 E-score.

ATGGATTG gave a binding signal of -0.0805 E-score. In the case of TGCGTTAA it was 0.0752 E-score. In the case of ATCGGTGG it was -0.018 E-score. In the case of ATACATCG it was 0.2 E-score.

Regarding GCGCCTTA, the binding signal is -0.327 E-score. In the case of AGCCCGGG it was -0.309 E-score; in that of AGGCCCTA, -0.18 E-score; in that of AAACGACA, 0.173 E-score. For AGCACGCA the value was 0.00389 E-score. Sequence ACTACGAC gave a binding signal of 0.158 E-score. For GACCAACA the value was -0.134 E-score. In the case of AGCAGAGG it was -0.325 E-score; in that of TCCACCGA, -0.225 E-score.

ACAGATGT showed a binding signal of 0.0663 E-score. In the case of TACGAGGA it was -0.0862 E-score; in that of ATCCGACC, -0.374 E-score; in that of CAGTTCTA, 0.238 E-score.

Regarding CTTAACCA, the binding signal is -0.046 E-score. The sequence ATCAGGTC displayed a binding signal of 0.135 E-score. In the case of GGCGGCAA it was -0.305 E-score. In the case of ATCGTGAC it was -0.0687 E-score. In the case of AACTTTAC it was 0.278 E-score; in that of CGATAGCC, -0.166 E-score. The sequence CTGTGCTA registered a binding signal of -0.0616 E-score. Consider CCGACTGA, for which the binding signal is -0.135 E-score. For ACGTTTCT the value was 0.215 E-score; for AAGCTACC, 0.291 E-score. For CTCGGCAG the value was -0.145 E-score. Take CATATCTA: the binding signal turned out to be 0.293 E-score. For GCTCGGCA the value was -0.191 E-score; for ACCTGCTA, -0.0576 E-score.

With CACTAAGG, the binding signal was -0.142 E-score. In the case of ACGACGAT it was 0.174 E-score; in that of ACACAAAG, 0.147 E-score; in that of TTTAAAAA, -0.124 E-score. In the case of CCCAAGGC it was -0.323 E-score.

As to CAGTGGGC, the binding signal is -0.23 E-score. For ACAGACCA the value was -0.114 E-score. In the case of AGTTAAAA it was 0.197 E-score. In the case of CCAACGCA it was -0.176 E-score; in that of CGGAGTGA, -0.203 E-score. Turning to GAAGTGGC, the binding signal came to 0.0597 E-score. For CCTGAGCA the value was -0.194 E-score; for ATTTGCAC, 0.091 E-score; for AGAGACTC, -0.169 E-score.

As to AAGAGTTC, the binding signal is -0.0802 E-score. For CCCTATGC the value was -0.243 E-score. For AAATGGAT the value was 0.0511 E-score. Turning to AGCAGGGC, the binding signal was -0.221 E-score.

On to ACTGGGGA, for which the binding signal was -0.167 E-score.

In turn, CATCGCAA had a binding signal of 0.122 E-score.

With AGGGGTTA, the binding signal is -0.0953 E-score. For AAGGGCAC the value was -0.268 E-score; for AAAGGAGC, -0.287 E-score. For AGAGACGC the value was -0.117 E-score.

Take CTCTGAGA: the binding signal is -0.078 E-score. For CTAAGTGA the value was -0.0596 E-score; for GGGGTACC, -0.286 E-score; for TGAAGCCA, 0.00954 E-score. In the case of CAAAATAA it was 0.0897 E-score; in that of ATACAGAA, 0.241 E-score; in that of ATTAACAC, 0.079 E-score.

GTGTTTTA came in with a binding signal of 0.15 E-score. For GGCGGCCA the value was -0.406 E-score.

Turning to CGGCGCAA, the binding signal is -0.186 E-score. In the case of CGCAGTTC it was -0.239 E-score; in that of AACCGTTA, 0.0486 E-score. In the case of ATGACTAG it was 0.133 E-score; in that of GGGACTAA, -0.0784 E-score.

CTACTTGA showed a binding signal of 0.115 E-score. For GCTCTGTA the value was -0.0578 E-score; for AGCTCATC, 0.213 E-score. The sequence GATTCATA returned a binding signal of 0.295 E-score. ATTCCTGG had a binding signal of -0.229 E-score. For AACGGTTC the value was 0.108 E-score. In the case of CATACTGC it was 0.0219 E-score; in that of ATCAATAC, 0.214 E-score.

As to CCATAGTC, the binding signal is -0.0195 E-score. ACAGAATG gave a binding signal of 0.13 E-score. As to ATGGGCGC, the binding signal is -0.193 E-score. For ACCTGTGG the value was -0.229 E-score; for TACAGACA, 0.0873 E-score; for AGCCTTGA, -0.189 E-score. For ATATGTAG the value was 0.391 E-score; for AAGTGAGT, -0.0236 E-score; for CCGTCCTC, -0.326 E-score. For TGCAGCCA the value was -0.226 E-score; for ATTCGCTG, -0.0928 E-score. CCCCTTAC returned a binding signal of -0.353 E-score.

With AGAACCTA, the binding signal came to 0.192 E-score. For CGCAATCC the value was -0.197 E-score; for GTCCGCGA, -0.198 E-score. The sequence TGAGCTAA displayed a binding signal of -0.0444 E-score. For CCCAAGCG the value was -0.221 E-score; for CTTTTCGC, 0.14 E-score; for GCATATAC, 0.268 E-score. In the case of CAGAGAAC it was 0.0182 E-score. In the case of CGCCCAAC it was -0.14 E-score.

Sequence GGTAGTCA had a binding signal of 0.125 E-score. In the case of AACAAAGT it was 0.0602 E-score. For GCCTCGCA the value was -0.343 E-score; for GTGGGTCA, -0.244 E-score. In the case of GGGGAACC it was -0.333 E-score; in that of AAGTTAAT, 0.121 E-score. Consider AACGAAAG, for which the binding signal worked out at 0.0822 E-score. For the sequence CTGTATCC, the binding signal came out at 0.0145 E-score. For CCAAGGGA the value was -0.171 E-score; for CCGTCCCG, -0.207 E-score; for AATTGTCC, -0.017 E-score. For the sequence CACCCCGG, the binding signal is -0.25 E-score. In the case of GATTATAA it was 0.208 E-score; in that of AAGCGTAT, 0.0405 E-score. For GACTTATC the value was -0.039 E-score; for AGGCGAAC, 0.0175 E-score; for CGGTGGAA, -0.161 E-score. For AGAGCCAT the value was -0.0273 E-score; for TGGATCCA, 0.0351 E-score; for GCCCGCCA, -0.36 E-score.
